Target: T1, epi-isozizaene synthase (EIZS) (Streptomyces coelicolor, UniProt Q9K499)
T1 sequence (Q9K499 1-361): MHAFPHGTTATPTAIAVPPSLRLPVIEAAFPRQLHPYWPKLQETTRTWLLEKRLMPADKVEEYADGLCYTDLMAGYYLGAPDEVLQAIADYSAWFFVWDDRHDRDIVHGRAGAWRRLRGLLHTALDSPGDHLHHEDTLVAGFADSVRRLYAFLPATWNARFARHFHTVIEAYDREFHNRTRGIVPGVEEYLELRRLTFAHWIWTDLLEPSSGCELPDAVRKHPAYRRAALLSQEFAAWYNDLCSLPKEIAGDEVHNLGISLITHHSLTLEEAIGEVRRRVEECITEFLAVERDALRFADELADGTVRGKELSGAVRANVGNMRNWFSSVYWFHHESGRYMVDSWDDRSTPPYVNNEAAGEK
Assay: HPLC product analysis at […] nm
Type: biochemical
Settings: minor activity

| Compound | HPLC product analysis at 280 nm (prenyl donor with indole) | HPLC product analysis at 280 nm (prenyl acceptor with DMAPP) |
| --- | --- | --- |
| CC(C)=CCOP(=O)(O)OP(=O)(O)O [DMAPP] | Both LS and EIZS showed minor prenylation activity with DMAPP |  |
| c1ccc2[nH]ccc2c1 [indole] |  | Both LS and EIZS showed minor prenylation activity with DMAPP |
